# Source: patent US12630599B2, “CA2 compositions and methods for tunable regulation” (Obsidian Therapeutics, Inc., priority 2019, dated 2026)
# B1: OT-0020%: construct transduced into T cells for the study of the effect of mbIL12 on CAR activity (protein)
# chain: IWELKKDVYVVELDWYPDAPGEMVVLTCDTPEEDGITWTLDQSSEVLGSGKTLTIQVKEFGDAGQYTCHKGGEVLSHSLLLLHKKEDGIWSTDILKDQKEPKNKTFLRCEAKNYSGRFTCWWLTTISTDLTFSVKSSRGSSDPQGVTCGAATLSAERVRGDNKEYEYSVECQEDSACPAAEESLPIEVMVDAVHKLKYENYTSSFFIRDIIKPDPPKNLQLKPLKNSRQVEVSWEYPDTWSTPHSYFSLTFCVQVQGKSKREKKDRVFTDKTSATVICRKNASISVRAQDRYYSSSWSEWASVPCSGGGGSGGGGSGGGGSRNLPVATPDPGMFPCLHHSQNLLRAVSNMLQKARQTLEFYPCTSEEIDHEDITKDKTSTVEACLPLELTKNESCLNSRETSFITNGSCLASRKTSFMMALCLSSIYEDLKMYQVEFKTMNAKLLMDPKRQIFLDQNMLAVIDELMQALNFNSETVPQKSSLEEPDFYKTKIKLCILLHAFRIRAVTIDRVMSYLNASGSGSGSGS[human IgG1 Fc left out here]KQEHFPDNLLPSWAITLISVNGIFVICCLTYCFAPRCRERRGS
# Tested on: Nalm-6 cells
# Test: 48 hour cytotoxicity assay, T cells co-cultured with Nalm-6 cells (NucRed), Incucyte (Example 4, Table 14)
# Type: cell-based
# Text: The following constructs were transduced into T cells: OT-001356 (nucleic acid sequence SEQ ID NO: 6081 encodes two amino acid sequences, first is SEQ ID NO: 6082 (nucleic acid sequence SEQ ID NO: 6083) second is SEQ ID NO: 6084 (nucleic acid sequence SEQ ID NO: 6085)), OT-001356 (amino acid sequence provided as SEQ ID NO: 6092 and nucleic acid is SEQ ID NO: 6093) OT-001407 (amino acid sequence provided as SEQ ID NO: 6086 and nucleic acid is SEQ ID NO: 6087), OT-001895, OT-002011, OT-002111, OT-0020%, OT-02171. The cells were expanded for 10 days and utilized for cytotoxicity assays. Percentage of CAR positive cells obtained with each of the constructs was as follows: OT-001356: 45.3%; OT-001407, OT-001895: 29.4%, OT-002011: 24.3%, OT-002111: 19.6%, OT-0020%: 6.08%, OT-002171: 13.3%. For cytotoxicity assays, T cells were thawed and co-cultured with Nalm-6 cells (stably expressing NucRed) at different T cells to Nalm-6 cell culture ratios. Target cell viability was determined by measuring cellular fluorescence over time using an Incucyte assay and the results are shown in Table 14.
molecule,measurement,setting,value
B1,Average Total Nalm6-NucRed Area after 48 hour at E:T ratio of 3:1,"E:T ratio 3:1, 48 hour","109,904"
same,Average Total Nalm6-NucRed Area after 48 hour at E:T ratio of 10:1,"E:T ratio 10:1, 48 hour","68,898"
